Results as given in the supplement of paper PMC10369915.
The list shows a part of the results. Rule as the data show it: active = 3.2 or more and inactive = the rest. The signal is at background level for most entries.

Legend:
Assay in all cases: enrichment score (SH2-bound / input frequency) (ratio); bacterial display of known human phosphotyrosine sites (pTyr-Var adds point mutants) read by sequencing; higher = stronger binding; tyrosines were phosphorylated by kinases first
Conditions in all cases: peptide library: Human pTyr
[1] = biological target: SHP2 C-SH2 domain E139D
[2] = biological target: SHP2 C-SH2 domain wild-type
[3] = biological target: SHP2 N-SH2 domain L43F
[4] = biological target: SHP2 N-SH2 domain T42A
[5] = biological target: SHP2 N-SH2 domain T52S
[6] = biological target: SHP2 N-SH2 domain wild-type

Measured: enrichment score
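Also: displayed peptides selected on beads carrying the immobilized SH2 domain, with library peptides lacking any tyrosine serving as negative controls.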

KGVCANRYLAMKEDG [FGF2_HUMAN_215]
inactive: [1] 1.12 | [2] 1.03 | [3] 1.14 | [4] 1.03 | [5] 1.11 | [6] 1.03

NRMPVAPYWTSPEKM [FGFR1_HUMAN_154]
inactive: [1] 1.03 | [2] 0.861 | [3] 0.805 | [4] 0.89 | [5] 1.06 | [6] 1.07

DIHHIDAYKKTTNGR [FGFR1_HUMAN_654_YA]
inactive: [1] 1.09 | [2] 0.786 | [3] 1.07 | [4] 0.722 | [5] 0.914 | [6] 0.958

SNCTNELYMMMRDCW [FGFR1_HUMAN_730]
inactive: [1] 0.872 | [2] 0.779 | [3] 0.677 | [4] 0.727 | [5] 0.881 | [6] 0.831

DINNIDAYKKTTNGR [FGFR2_HUMAN_657_YA]
inactive: [1] 0.898 | [2] 0.858 | [3] 1.12 | [4] 0.998 | [5] 0.841 | [6] 0.899

TLTTNEEYLDLSQPL [FGFR2_HUMAN_769]
inactive: [1] 0.783 | [2] 0.691 | [3] 0.754 | [4] 0.662 | [5] 0.529 | [6] 0.805

TSSLPEGYAEEAVPL [AFAP1_HUMAN_93_YA]
inactive: [1] 0.742 | [2] 0.725 | [3] 0.657 | [4] 0.731 | [5] 0.584 | [6] 0.883

FHRNDSIYEELQKHD [FHIT_HUMAN_114]
inactive: [1] 0.846 | [2] 0.889 | [3] 1.07 | [4] 0.726 | [5] 0.893 | [6] 1.02

IKTGAPQYGSAGTAP [FIP1L1_HUMAN_110_YA]
inactive: [1] 0.779 | [2] 0.716 | [3] 0.611 | [4] 0.762 | [5] 0.797 | [6] 0.86

KGEHSIVYLKPSYAF [FKBP4_HUMAN_220]
inactive: [1] 1.11 | [2] 1.52 | [3] 1.66 | [4] 2.85 | [5] 1.54 | [6] 1.31

DIHDDQDYLHSLGKA [FLOT1_HUMAN_160]
inactive: [1] 0.721 | [2] 0.635 | [3] 0.778 | [4] 0.73 | [5] 0.644 | [6] 0.731

NVKSEKVYTRHGVPI [FLOT1_HUMAN_56]
inactive: [1] 1.05 | [2] 1.02 | [3] 0.96 | [4] 1.03 | [5] 1.16 | [6] 1.09

DVYDKVDYLSSLGKT [FLOT2_HUMAN_163]
inactive: [1] 0.627 | [2] 0.483 | [3] 0.606 | [4] 0.488 | [5] 0.559 | [6] 0.805

TGSSDNEYFAVDFRE [FLT3_HUMAN_589_YA]
inactive: [1] 0.842 | [2] 0.457 | [3] 0.58 | [4] 0.684 | [5] 0.553 | [6] 0.662

SSDNEAFYVDFREAE [FLT3_HUMAN_591_YA]
inactive: [1] 0.955 | [2] 0.863 | [3] 0.926 | [4] 0.822 | [5] 0.892 | [6] 0.966

VDFREAEYDLKWEFP [FLT3_HUMAN_599_YA]
inactive: [1] 1.09 | [2] 1 | [3] 1.06 | [4] 1.2 | [5] 1.22 | [6] 1.2

SSLPEGAYEEAVPLS [AFAP1_HUMAN_94_YA]
inactive: [1] 0.613 | [2] 0.565 | [3] 0.566 | [4] 0.661 | [5] 0.796 | [6] 0.67

KEHNFSFYPTFQSHP [FLT3_HUMAN_726]
inactive: [1] 1.56 | [2] 1.22 | [3] 1.07 | [4] 0.998 | [5] 1.14 | [6] 1.62

VSECPHTYQNRRPFS [FLT3_HUMAN_969]
inactive: [1] 1.31 | [2] 1.42 | [3] 1.4 | [4] 1.65 | [5] 1.42 | [6] 1.28

FSGFNADYEASSSRC [FOS_HUMAN_10]
inactive: [1] 1.1 | [2] 0.91 | [3] 0.911 | [4] 0.862 | [5] 0.949 | [6] 0.792

AGDSLSYYHSPADSF [FOS_HUMAN_30]
inactive: [1] 0.646 | [2] 0.553 | [3] 0.531 | [4] 0.453 | [5] 0.582 | [6] 0.682

AGDSLSAYHSPADSF [FOS_HUMAN_30_YA]
inactive: [1] 0.469 | [2] 0.42 | [3] 0.512 | [4] 0.474 | [5] 0.506 | [6] 0.441

SSSSDEEYIYMNKVT [AFAP1L2_HUMAN_54]
inactive: [1] 0.76 | [2] 0.636 | [3] 0.694 | [4] 0.654 | [5] 0.633 | [6] 0.471

KVDNEDIYESRHEIK [FRK_HUMAN_387]
inactive: [1] 0.975 | [2] 0.985 | [3] 0.996 | [4] 0.798 | [5] 1.16 | [6] 0.958

FREVRNEYGSRIGGN [FUBP1_HUMAN_268]
inactive: [1] 0.853 | [2] 0.727 | [3] 0.653 | [4] 0.633 | [5] 1.06 | [6] 0.8

EDLADKPYTFEDYDV [FXN_HUMAN_118]
inactive: [1] 1.35 | [2] 1.2 | [3] 1.39 | [4] 1.32 | [5] 1.73 | [6] 1.56

EGDEVEVYSRANDQE [FXR1_HUMAN_68]
inactive: [1] 1.35 | [2] 0.9 | [3] 1.16 | [4] 1.66 | [5] 1.23 | [6] 1.26

EGDEVEVYSRANEQE [FXR2_HUMAN_78]
inactive: [1] 1.07 | [2] 1.12 | [3] 0.948 | [4] 1.33 | [5] 1.16 | [6] 1.22

CRNEEGKYGAVLRSA [FYB_HUMAN_755_YA]
inactive: [1] 1.27 | [2] 1.13 | [3] 0.947 | [4] 0.853 | [5] 1.11 | [6] 1.02

DIADGCIYDNDGGGG [FYB_HUMAN_780]
inactive: [1] 0.93 | [2] 0.955 | [3] 0.739 | [4] 0.858 | [5] 0.86 | [6] 1.16

SLNQSSGYRYGTDPT [FYN_HUMAN_28]
inactive: [1] 0.627 | [2] 0.509 | [3] 0.516 | [4] 0.492 | [5] 0.513 | [6] 0.528

NQSSGYRYGTDPTPQ [FYN_HUMAN_30]
inactive: [1] 0.582 | [2] 0.504 | [3] 0.645 | [4] 0.562 | [5] 0.565 | [6] 0.518

EPGSEGDYMVLPRRT [AGRB2_HUMAN_1351]
inactive: [1] 1.1 | [2] 0.59 | [3] 0.543 | [4] 0.76 | [5] 0.655 | [6] 0.729

TDPTPQHYPSFGVTS [FYN_HUMAN_39]
inactive: [1] 0.565 | [2] 0.543 | [3] 0.394 | [4] 0.6 | [5] 0.477 | [6] 1.1

VHNDIFRYQDEVFGG [G3BP1_HUMAN_133]
inactive: [1] 0.717 | [2] 0.726 | [3] 0.677 | [4] 0.617 | [5] 0.752 | [6] 0.953

DPFIDLNYMVAMFQA [G3P_HUMAN_42_YA]
inactive: [1] 1.49 | [2] 1.6 | [3] 1.44 | [4] 1.53 | [5] 1.78 | [6] 1.83
